Measured values taken from publication PMC10320511.
No constants are given. Whether binding was seen depends on the method and setting. Binding seen in cells or lysates may run through a third protein. Some results given as binding are weak or reduced against the parent protein; the word gives no strength. Tags and fused reporters may be left off the sequences shown.

The chains behind the UniProt entries cited, without tags or fusion partners.
UniProt Q01371: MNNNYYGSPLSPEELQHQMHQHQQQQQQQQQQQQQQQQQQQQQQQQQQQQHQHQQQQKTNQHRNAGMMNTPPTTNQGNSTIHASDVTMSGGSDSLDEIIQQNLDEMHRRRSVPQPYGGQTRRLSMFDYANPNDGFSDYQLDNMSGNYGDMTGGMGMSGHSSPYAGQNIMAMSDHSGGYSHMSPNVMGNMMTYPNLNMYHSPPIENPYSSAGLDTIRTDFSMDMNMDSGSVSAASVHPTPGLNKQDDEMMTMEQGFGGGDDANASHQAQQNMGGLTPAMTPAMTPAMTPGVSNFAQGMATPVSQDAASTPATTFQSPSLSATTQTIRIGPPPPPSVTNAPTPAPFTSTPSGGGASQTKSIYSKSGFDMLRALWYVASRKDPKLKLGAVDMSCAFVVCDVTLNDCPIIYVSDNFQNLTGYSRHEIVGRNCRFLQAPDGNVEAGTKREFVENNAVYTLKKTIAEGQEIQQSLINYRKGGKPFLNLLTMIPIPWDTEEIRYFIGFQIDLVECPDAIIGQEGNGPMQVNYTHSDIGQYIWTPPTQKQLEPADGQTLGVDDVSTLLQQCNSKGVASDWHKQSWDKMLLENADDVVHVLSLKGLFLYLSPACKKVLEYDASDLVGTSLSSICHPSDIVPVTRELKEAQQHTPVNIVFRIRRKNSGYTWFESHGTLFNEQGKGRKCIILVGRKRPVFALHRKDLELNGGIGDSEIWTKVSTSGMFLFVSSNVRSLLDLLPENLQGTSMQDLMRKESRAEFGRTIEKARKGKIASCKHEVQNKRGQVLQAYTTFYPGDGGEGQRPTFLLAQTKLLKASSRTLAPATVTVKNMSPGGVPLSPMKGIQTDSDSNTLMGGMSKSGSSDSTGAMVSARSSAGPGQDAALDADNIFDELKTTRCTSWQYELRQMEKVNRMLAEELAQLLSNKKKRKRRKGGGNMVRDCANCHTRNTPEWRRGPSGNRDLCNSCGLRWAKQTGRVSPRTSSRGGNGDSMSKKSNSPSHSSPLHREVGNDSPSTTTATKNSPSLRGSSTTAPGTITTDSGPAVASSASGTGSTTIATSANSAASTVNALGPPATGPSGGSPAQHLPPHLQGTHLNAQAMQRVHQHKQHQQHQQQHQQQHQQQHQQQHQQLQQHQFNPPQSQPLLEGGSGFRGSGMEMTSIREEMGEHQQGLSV

Key:
[1] = biological target: T1, FRQ D862A, D866A, D867A, D869A, D870A, V5H6-tagged (Neurospora crassa) (UniProt P19970); assay: co-IP; V5H6-tagged FRQ (wild type or mutant) pulled down with V5 agarose from Neurospora lysate (cultures in the light, 25 °C); 50 mM Hepes pH 7.4, 137 mM NaCl, 10% glycerol, 0.4% NP-40; 4 °C, 2 h; Western blot with FRQ, FRH, WC-1 and WC-2 antibodies
T1 sequence: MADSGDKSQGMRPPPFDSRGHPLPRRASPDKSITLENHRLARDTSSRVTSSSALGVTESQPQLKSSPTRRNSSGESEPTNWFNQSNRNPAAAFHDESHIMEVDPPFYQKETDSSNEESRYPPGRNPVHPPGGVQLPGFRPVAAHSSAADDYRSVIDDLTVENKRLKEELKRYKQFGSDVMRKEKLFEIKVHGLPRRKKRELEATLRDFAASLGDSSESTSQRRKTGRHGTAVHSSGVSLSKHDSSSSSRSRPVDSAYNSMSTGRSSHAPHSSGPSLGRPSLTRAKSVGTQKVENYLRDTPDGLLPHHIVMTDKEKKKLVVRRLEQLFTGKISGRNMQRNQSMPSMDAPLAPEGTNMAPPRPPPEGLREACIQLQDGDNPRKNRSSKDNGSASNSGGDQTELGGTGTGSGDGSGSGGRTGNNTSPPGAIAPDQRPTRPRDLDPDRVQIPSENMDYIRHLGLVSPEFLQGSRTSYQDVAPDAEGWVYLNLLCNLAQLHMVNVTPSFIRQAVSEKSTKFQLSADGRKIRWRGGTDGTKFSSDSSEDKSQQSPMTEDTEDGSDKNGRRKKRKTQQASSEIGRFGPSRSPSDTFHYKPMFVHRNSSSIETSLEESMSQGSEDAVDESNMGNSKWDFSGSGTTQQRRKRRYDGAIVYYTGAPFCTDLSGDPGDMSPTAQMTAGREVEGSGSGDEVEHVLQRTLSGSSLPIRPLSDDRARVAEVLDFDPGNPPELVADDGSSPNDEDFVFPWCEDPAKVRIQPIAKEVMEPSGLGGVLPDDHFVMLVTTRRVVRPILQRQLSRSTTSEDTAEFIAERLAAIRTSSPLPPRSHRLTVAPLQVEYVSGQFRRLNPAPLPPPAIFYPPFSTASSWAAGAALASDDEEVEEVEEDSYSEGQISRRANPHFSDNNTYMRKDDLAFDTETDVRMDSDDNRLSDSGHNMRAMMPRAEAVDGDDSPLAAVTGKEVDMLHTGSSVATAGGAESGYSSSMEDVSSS

[2] = biological target: T2, FRQ Δ874–884, V5H6-tagged (Neurospora crassa) (UniProt P19970); assay: as above
T2 sequence: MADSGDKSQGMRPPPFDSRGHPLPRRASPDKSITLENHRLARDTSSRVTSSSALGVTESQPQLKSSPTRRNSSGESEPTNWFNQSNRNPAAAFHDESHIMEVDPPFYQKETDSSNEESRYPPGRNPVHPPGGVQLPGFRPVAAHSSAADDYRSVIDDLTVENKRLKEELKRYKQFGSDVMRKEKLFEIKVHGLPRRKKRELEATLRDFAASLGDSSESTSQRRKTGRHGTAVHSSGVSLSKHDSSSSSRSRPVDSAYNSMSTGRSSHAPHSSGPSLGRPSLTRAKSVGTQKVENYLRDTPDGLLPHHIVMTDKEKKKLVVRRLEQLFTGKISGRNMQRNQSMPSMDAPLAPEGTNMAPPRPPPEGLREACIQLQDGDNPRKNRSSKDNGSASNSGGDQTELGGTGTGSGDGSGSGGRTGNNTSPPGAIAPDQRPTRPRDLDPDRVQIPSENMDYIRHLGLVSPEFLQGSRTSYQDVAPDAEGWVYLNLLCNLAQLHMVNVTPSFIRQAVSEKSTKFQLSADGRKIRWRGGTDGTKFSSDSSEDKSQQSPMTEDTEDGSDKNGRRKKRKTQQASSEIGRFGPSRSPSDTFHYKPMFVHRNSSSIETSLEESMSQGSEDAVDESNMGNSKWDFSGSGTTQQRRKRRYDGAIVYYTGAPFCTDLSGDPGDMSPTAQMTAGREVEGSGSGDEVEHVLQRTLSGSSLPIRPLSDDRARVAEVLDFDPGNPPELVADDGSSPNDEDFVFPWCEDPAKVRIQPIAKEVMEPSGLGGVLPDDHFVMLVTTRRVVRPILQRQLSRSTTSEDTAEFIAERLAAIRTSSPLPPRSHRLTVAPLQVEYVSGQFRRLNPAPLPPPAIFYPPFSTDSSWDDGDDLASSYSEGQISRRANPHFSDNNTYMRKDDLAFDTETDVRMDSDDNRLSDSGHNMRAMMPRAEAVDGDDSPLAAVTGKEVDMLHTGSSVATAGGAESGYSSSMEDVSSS

For “White Collar-1 (WC-1) (from UniProt Q01371 1-1167)”, the binding [1] was “binds weakly” and the binding [2] was “binds”.
